Results published in PubChem BioAssay AID1477 (National Center for Advancing Translational Sciences (NCATS), 2009).
The whole screen tested about 230,000 compounds, of which fewer than 10 were called active. The inconclusive results got no clear call from the source; some entries with a clear call stand among them for comparison. Calls come from the whole dose curve; as a rule, active = well fitted curve in the direction sought with a large enough effect; inconclusive = small, poorly fitted or top-dose-only effect, or effect the other way, or another doubt; inactive = no such curve, though single readings can be large or run the other way. Potencies of inconclusive entries are left out as doubtful fits.

target: Runt-related transcription factor 1 (Homo sapiens) + Core-binding factor subunit beta (Homo sapiens) (UniProt Q01196+Q13951); experiment: qHTS Assay for Compounds Blocking the Interaction Between CBF-beta and RUNX1 for the Treatment of Acute Myeloid Leukemia; conditions: AlphaScreen CBFb-His/RUNX1-biotin binding, biochemical; series mostly up to 59.8 µM
Chain of UniProt Q01196 (Q01196 whole entry, looked up): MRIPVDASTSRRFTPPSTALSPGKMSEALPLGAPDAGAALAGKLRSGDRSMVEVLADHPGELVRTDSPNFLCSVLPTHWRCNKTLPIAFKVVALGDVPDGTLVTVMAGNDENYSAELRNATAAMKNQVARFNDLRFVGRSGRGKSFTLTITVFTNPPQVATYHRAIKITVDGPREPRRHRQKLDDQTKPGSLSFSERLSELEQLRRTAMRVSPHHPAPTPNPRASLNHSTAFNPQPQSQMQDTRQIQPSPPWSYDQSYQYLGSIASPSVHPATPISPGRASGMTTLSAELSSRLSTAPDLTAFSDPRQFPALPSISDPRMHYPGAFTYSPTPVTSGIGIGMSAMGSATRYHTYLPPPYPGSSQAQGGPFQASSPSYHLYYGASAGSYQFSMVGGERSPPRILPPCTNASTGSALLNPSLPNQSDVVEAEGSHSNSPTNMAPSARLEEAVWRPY
Chain of UniProt Q01196 (Q13951 whole entry, looked up): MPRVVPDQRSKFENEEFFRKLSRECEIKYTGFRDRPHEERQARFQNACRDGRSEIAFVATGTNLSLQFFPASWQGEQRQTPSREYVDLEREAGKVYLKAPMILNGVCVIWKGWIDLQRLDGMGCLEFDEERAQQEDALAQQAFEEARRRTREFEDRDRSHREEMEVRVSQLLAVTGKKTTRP
Summary of the method: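 AlphaScreen proximity signal reports loss of binding between His-tagged CBF-beta and biotin-labelled RUNX1, each at 30 nM. Proteins are pre-associated for 20 minutes, compounds added for 15 minutes, then beads for 90 minutes, all at ambient temperature.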

| Compound | Potency |
| --- | --- |
| CCOc1ccc(N2C(=O)c3cccnc3C2=O)cc1 | inconclusive [inhibitor, partial curve] |
| O=C(Nc1ccc(N2CCCCCC2)cc1)c1ccccc1Cl | inconclusive [inhibitor, single point] |
| Cc1ccccc1N=C1NC(=O)/C(=C/c2cccn2C)S1 | inconclusive [inhibitor, single point] |
| Cc1ccc(CSc2nc3c(c(N(C)C)n2)CCCC3)cc1 | inconclusive [activator, partial curve] |
| CN1/C(=C\C=C2/SC(=S)N(CC(=O)O)C2=O)C(C)(C)c2ccccc21 | inconclusive [inhibitor, partial curve] |
| CCCCN1C(=O)/C(=C/C=C/c2ccco2)C(=O)NC1=S | inconclusive [inhibitor, single point] |
| O=C(COC(=O)c1ccccc1Nc1ccccc1)c1ccccc1 | inconclusive [activator, single point] |
| CCOC(=O)N1CCN(C2CC(=O)N(c3ccccc3)C2=O)CC1 (stereo unspecified) | inactive |
| CCOC(=O)C1(CCc2ccccc2)CCN(Cc2cccc3cnccc23)CC1 | inactive |
| O=C(O)CCC(=O)Nc1ccc(C(=O)OCC(=O)c2ccc(Cl)cc2Cl)cc1 | inactive |
| Cc1cc(SCC(=O)c2cccs2)n2nc(C)c(-c3ccccc3)c2n1 | inconclusive [inhibitor, single point] |
| O=C(Nc1ccc2c(c1)CCC2)C1COc2ccccc2O1 (stereo unspecified) | inconclusive [activator, single point] |
| CCN(CC)c1ccc(NC(=O)c2ccc3c(c2)c(C)c(C)n3C)cc1 | inconclusive [inhibitor, single point] |
| CCN1CCN(Cc2ccc(NC(=O)c3cc(NC(=O)C(=O)c4c[nH]c5ccccc45)cc(OC)c3)cc2C(F)(F)F)CC1 | inactive |
| NS(=O)(=O)c1ccc(N2N=C(c3ccccc3)CC2c2ccc(F)cc2)cc1 (stereo unspecified) | inconclusive [activator, partial curve] |
| Nc1c(Cl)cc2c(c1Oc1ccccc1)C(=O)c1ccccc1C2=O | inconclusive [inhibitor, partial curve] |
| O=C(N/N=C/c1cn(-c2ccccc2)nc1-c1cccs1)c1ccc(Cl)cc1 | inactive |
| CCOc1ccc(N=C2NN=C(c3cc(C)n(CC4CCCO4)c3C)CS2)cc1 (stereo unspecified) | inconclusive [inhibitor, single point] |
| O=C(NCc1cccs1)C(=O)NCC1OCCCN1S(=O)(=O)c1ccccc1 (stereo unspecified) | inconclusive [inhibitor, partial curve] |
| COc1ccc(N2CCN(c3oc(COc4ccc(Cl)cc4)nc3C#N)CC2)cc1 | inconclusive [inhibitor, partial curve] |
| COc1cccc2sc(Nc3nnc(-c4ccccc4Cl)o3)nc12 | inactive |
| Cc1cc(/C=C2\C(=O)NC(=O)N(Cc3ccco3)C2=O)c(C)n1-c1ccc(C(=O)O)cc1 | inconclusive [inhibitor, single point] |
| Cc1cc(C2=NNC(=NCCc3ccccc3)SC2)c(C)n1CC1CCCO1 (stereo unspecified) | inconclusive [inhibitor, partial curve] |

| Compound | Potency |
| --- | --- |
| CN1CCN(C(=O)c2cc3c(ccc4ccccc43)oc2=O)CC1 | inactive |
| CN1CCN(CCCc2c3c(cc4c2CCC4)CCC3)CC1 | inconclusive [inhibitor, single point] |
| COc1ccc(Nc2nc(-c3c(C)nc4ncccn34)cs2)cc1 | inactive |
| CCc1ccc(C(=O)NNC(=S)Nc2ccc(S(N)(=O)=O)cc2)s1 | inconclusive [inhibitor, partial curve] |
| CCOC(=O)c1c(N)sc(C(=O)N(C)C)c1CN1CCOCC1 | inconclusive [activator, single point] |
| COc1ccc([C@@H]2Sc3ccccc3N(CCN(C)C)C(=O)[C@@H]2OC(C)=O)cc1 | inconclusive [activator, single point] |
| COC(=O)[C@@H](N)CS | inactive |
| CC(=O)[C@@H]1[C@@H]2C(=O)N(Cc3ccccc3)C(=O)[C@@H]2C2c3ccccc3C=CN21 (stereo partly specified) | inactive |
| Cc1ccc(C2=NN(C(=O)COc3ncnc4ccccc34)C(c3ccco3)C2)cc1 (stereo unspecified) | inactive |
| C[C@H](NC[C@H](O)CP(=O)(O)Cc1ccccc1)c1ccc(Cl)c(Cl)c1 | inconclusive [activator, partial curve] |
| O=C(/C(=C/O)N=Nc1ccccc1Cl)c1ccccc1 | inconclusive [inhibitor, partial curve] |
| COc1cc(CNC(C)c2ccccc2)cc(Cl)c1OCC(=O)Nc1ccccc1 (stereo unspecified) | inconclusive [activator, full curve, poor fit] |
| N#CC1=C(N)SC(N)=C(C#N)C1CCc1ccccc1 | inactive |
| CCN(CC)c1ccc(/C=C2/C(=O)NC(=O)N(Cc3ccco3)C2=O)cc1 | inconclusive [inhibitor, single point] |
| CCOC(=O)c1cnc(-n2nc(C)cc2C)nc1NC(C)c1ccccc1 (stereo unspecified) | inconclusive [inhibitor, partial curve] |
| CCCN1CCC(=NNC(=O)c2ccc(Br)o2)CC1 | inactive |
| CCCCCNCC(=O)Nc1cccc(C(=O)Nc2cccc(C(F)(F)F)c2)c1 | inactive |
| CCN(CC(=O)Nc1ccc(C(C)=O)cc1)CC(=O)Nc1ccccc1C(F)(F)F | inactive |
| Cc1ccc(C(=O)NC=C(Cl)Cl)cc1 | inconclusive [activator, single point] |
| C[C@@H](CNC1CCCCC1)OC(=O)c1ccccc1 | inactive |
| Cc1onc(-c2c(Cl)cccc2Cl)c1C(=O)NC1C(=O)N2C1SC(C)(C)C2C(=O)O (stereo unspecified) | inconclusive [inhibitor, single point] |
| CN(C1CCCCC1)S(=O)(=O)c1ccc(NC(=O)C2CCCCC2)cc1 | inactive |
| CCN(CC)c1ccc(C(=S)NCc2ccccc2)cc1 | inconclusive [inhibitor, single point] |
